Results from the supplement of paper PMC8728848.
The list shows a part of the results.

What was measured:
Test in all cases: glycan array binding signal (z-score within array); higher = stronger binding
Conditions in all cases: glycan notation: IUPAC condensed, linker removed
[1] = molecular target: Neu5Ac(a2-3)GalNAc
Procedure, shortened: (§1)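 Glycan array data were curated from 3228 arrays in the Consortium for Functional Glycomics database and kept only where the protein sequence was available. Glycan names were converted to IUPAC-condensed notation, and columns mapping to the same glycan were averaged. The binding signal is a within-array Z-score, averaged across arrays of the same protein sequence at different concentrations or buffers and across linkers. Negative Z-scores can be read as non-binding.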

[2] = molecular target: Neu5Ac(a2-3)GalNAc(b1-4)GlcNAc
Procedure, shortened: as §1

[3] = molecular target: Neu5Ac(a2-3)[GalNAc(b1-4)]Gal(b1-4)Glc
Procedure, shortened: as §1

[4] = molecular target: Neu5Ac(a2-3)[GalNAc(b1-4)]Gal(b1-4)GlcNAc
Procedure, shortened: as §1

[5] = molecular target: Neu5Ac(a2-3)[GalNAc(b1-4)]Gal(b1-4)GlcNAc(b1-3)GalNAc
Procedure, shortened: as §1

[6] = molecular target: Neu5Ac(a2-3)[Neu5Ac(a2-6)]GalNAc
Procedure, shortened: as §1

[7] = molecular target: Neu5Ac(a2-6)Gal
Procedure, shortened: as §1

[8] = molecular target: Neu5Ac(a2-6)Gal(b1-3)GlcNAc(b1-3)[Gal(b1-4)GlcNAc(b1-6)]Gal(b1-4)Glc
Procedure, shortened: as §1

[9] = molecular target: Neu5Ac(a2-6)Gal(b1-4)Glc
Procedure, shortened: as §1

[10] = molecular target: Neu5Ac(a2-6)Gal(b1-4)GlcNAc
Procedure, shortened: as §1

[11] = molecular target: Neu5Ac(a2-6)Gal(b1-4)GlcNAc(b1-2)Man
Procedure, shortened: as §1

[12] = molecular target: Neu5Ac(a2-6)Gal(b1-4)GlcNAc(b1-2)Man(a1-3)Man(b1-4)GlcNAc(b1-4)GlcNAc
Procedure, shortened: as §1

[13] = molecular target: Neu5Ac(a2-6)Gal(b1-4)GlcNAc(b1-2)Man(a1-3)[Gal(b1-4)GlcNAc(b1-2)Man(a1-6)]Man(b1-4)GlcNAc(b1-4)GlcNAc
Procedure, shortened: as §1

[14] = molecular target: Neu5Ac(a2-6)Gal(b1-4)GlcNAc(b1-2)Man(a1-3)[GlcNAc(b1-2)Man(a1-6)]Man(b1-4)GlcNAc(b1-4)GlcNAc
Procedure, shortened: as §1

[15] = molecular target: Neu5Ac(a2-6)Gal(b1-4)GlcNAc(b1-2)Man(a1-3)[GlcNAc(b1-4)][Neu5Ac(a2-6)Gal(b1-4)GlcNAc(b1-2)Man(a1-6)]Man(b1-4)GlcNAc(b1-4)GlcNAc
Procedure, shortened: as §1

[16] = molecular target: Neu5Ac(a2-6)Gal(b1-4)GlcNAc(b1-2)Man(a1-3)[Man(a1-6)]Man(b1-4)GlcNAc(b1-4)GlcNAc
Procedure, shortened: as §1

[17] = molecular target: Neu5Ac(a2-6)Gal(b1-4)GlcNAc(b1-2)Man(a1-3)[Neu5Ac(a2-3)Gal(b1-4)GlcNAc(b1-2)Man(a1-6)]Man(b1-4)GlcNAc(b1-4)GlcNAc
Procedure, shortened: as §1

[18] = molecular target: Neu5Ac(a2-6)Gal(b1-4)GlcNAc(b1-2)Man(a1-3)[Neu5Ac(a2-6)Gal(b1-4)GlcNAc(b1-2)Man(a1-6)]Man(b1-4)GlcNAc(b1-4)GlcNAc
Procedure, shortened: as §1

[19] = molecular target: Neu5Ac(a2-6)Gal(b1-4)GlcNAc(b1-2)Man(a1-3)[Neu5Ac(a2-6)Gal(b1-4)GlcNAc(b1-2)Man(a1-6)]Man(b1-4)GlcNAc(b1-4)[Fuc(a1-6)]GlcNAc
Procedure, shortened: as §1

[20] = molecular target: Neu5Ac(a2-6)Gal(b1-4)GlcNAc(b1-2)Man(a1-6)Man(b1-4)GlcNAc(b1-4)GlcNAc
Procedure, shortened: as §1

[21] = molecular target: Neu5Ac(a2-6)Gal(b1-4)GlcNAc(b1-2)Man(a1-6)[Gal(b1-4)GlcNAc(b1-2)Man(a1-3)]Man(b1-4)GlcNAc(b1-4)GlcNAc
Procedure, shortened: as §1

[22] = molecular target: Neu5Ac(a2-6)Gal(b1-4)GlcNAc(b1-2)Man(a1-6)[GlcNAc(b1-2)Man(a1-3)]Man(b1-4)GlcNAc(b1-4)GlcNAc
Procedure, shortened: as §1

[23] = molecular target: Neu5Ac(a2-6)Gal(b1-4)GlcNAc(b1-2)Man(a1-6)[Man(a1-3)]Man(b1-4)GlcNAc(b1-4)GlcNAc
Procedure, shortened: as §1

[24] = molecular target: Neu5Ac(a2-6)Gal(b1-4)GlcNAc(b1-2)[Neu5Ac(a2-6)Gal(b1-4)GlcNAc(b1-4)]Man(a1-3)[GlcNAc(b1-4)][Neu5Ac(a2-6)Gal(b1-4)GlcNAc(b1-2)[Neu5Ac(a2-6)Gal(b1-4)GlcNAc(b1-6)]Man(a1-6)]Man(b1-4)GlcNAc(b1-4)GlcNAc
Procedure, shortened: as §1

[25] = molecular target: Neu5Ac(a2-6)Gal(b1-4)GlcNAc(b1-2)[Neu5Ac(a2-6)Gal(b1-4)GlcNAc(b1-4)]Man(a1-3)[GlcNAc(b1-4)][Neu5Ac(a2-6)Gal(b1-4)GlcNAc(b1-4)Man(a1-6)]Man(b1-4)GlcNAc(b1-4)GlcNAc
Procedure, shortened: as §1

[26] = molecular target: Neu5Ac(a2-6)Gal(b1-4)GlcNAc(b1-2)[Neu5Ac(a2-6)Gal(b1-4)GlcNAc(b1-6)]Man(a1-6)[Neu5Ac(a2-6)Gal(b1-4)GlcNAc(b1-2)Man(a1-3)][GlcNAc(b1-4)]Man(b1-4)GlcNAc(b1-4)GlcNAc
Procedure, shortened: as §1

[27] = molecular target: Neu5Ac(a2-6)Gal(b1-4)GlcNAc(b1-3)Gal(b1-3)GlcNAc
Procedure, shortened: as §1

[28] = molecular target: Neu5Ac(a2-6)Gal(b1-4)GlcNAc(b1-3)Gal(b1-4)GlcNAc
Procedure, shortened: as §1

[29] = molecular target: Neu5Ac(a2-6)Gal(b1-4)GlcNAc(b1-3)Gal(b1-4)GlcNAc(b1-2)Man(a1-3)[Neu5Ac(a2-6)Gal(b1-4)GlcNAc(b1-3)Gal(b1-4)GlcNAc(b1-2)Man(a1-6)]GalNAc
Procedure, shortened: as §1

[30] = molecular target: Neu5Ac(a2-6)Gal(b1-4)GlcNAc(b1-3)Gal(b1-4)GlcNAc(b1-3)Gal(b1-4)GlcNAc
Procedure, shortened: as §1

[31] = molecular target: Neu5Ac(a2-6)Gal(b1-4)GlcNAc(b1-3)Gal(b1-4)GlcNAc(b1-3)Gal(b1-4)GlcNAc(b1-2)Man(a1-3)[Neu5Ac(a2-6)Gal(b1-4)GlcNAc(b1-3)Gal(b1-4)GlcNAc(b1-3)Gal(b1-4)GlcNAc(b1-2)Man(a1-6)]GalNAc
Procedure, shortened: as §1

[32] = molecular target: Neu5Ac(a2-6)Gal(b1-4)GlcNAc(b1-3)Gal(b1-4)GlcNAc(b1-3)GalNAc
Procedure, shortened: as §1

[33] = molecular target: Neu5Ac(a2-6)Gal(b1-4)GlcNAc(b1-3)Gal(b1-4)GlcNAc(b1-3)[Neu5Ac(a2-6)Gal(b1-4)GlcNAc(b1-3)Gal(b1-4)GlcNAc(b1-6)]GalNAc
Procedure, shortened: as §1

[34] = molecular target: Neu5Ac(a2-6)Gal(b1-4)GlcNAc(b1-3)Gal(b1-4)GlcNAc(b1-6)[Gal(b1-3)]GalNAc
Procedure, shortened: as §1

[35] = molecular target: Neu5Ac(a2-6)Gal(b1-4)GlcNAc(b1-3)Gal(b1-4)[Fuc(a1-3)]GlcNAc(b1-3)Gal(b1-4)[Fuc(a1-3)]GlcNAc
Procedure, shortened: as §1

[36] = molecular target: Neu5Ac(a2-6)Gal(b1-4)GlcNAc(b1-3)GalNAc
Procedure, shortened: as §1

[37] = molecular target: Neu5Ac(a2-6)Gal(b1-4)GlcNAc(b1-3)[Neu5Ac(a2-6)Gal(b1-4)GlcNAc(b1-6)]GalNAc
Procedure, shortened: as §1

[38] = molecular target: Neu5Ac(a2-6)Gal(b1-4)GlcNAc(b1-6)GalNAc
Procedure, shortened: as §1

[39] = molecular target: Neu5Ac(a2-6)Gal(b1-4)GlcNAc(b1-6)[Gal(b1-3)GlcNAc(b1-3)]Gal(b1-4)Glc
Procedure, shortened: as §1

[40] = molecular target: Neu5Ac(a2-6)Gal(b1-4)GlcNAc(b1-6)[Gal(b1-3)]GalNAc
Procedure, shortened: as §1

[41] = molecular target: Neu5Ac(a2-6)Gal(b1-4)GlcNAc6S
Procedure, shortened: as §1

[42] = molecular target: Neu5Ac(a2-6)GalNAc
Procedure, shortened: as §1

[43] = molecular target: Neu5Ac(a2-6)GalNAc(b1-4)GlcNAc
Procedure, shortened: as §1

[44] = molecular target: Neu5Ac(a2-6)GalNAc(b1-4)GlcNAc6S
Procedure, shortened: as §1

[45] = molecular target: Neu5Ac(a2-6)GlcNAc(b1-4)GlcNAc
Procedure, shortened: as §1

B1: Langerin K313I (Homo sapiens), Q9UJ71 (protein)
chain: STLNAQIPELKSDLEKASALNTKIRALQGSLENMSKLLKRQNDILQVVSQGWKYFKGNFYYFSLIPKTWYSAEQFCVSRNSHLTSVTSESEQEFLYKTAGGLIYWIGLTKAGMEGDWSWVDDTPFNKVQSARFWIPGEPNNAGNNEHCGNIKAPSLQAWNDAPCDITFLFICKRPYVPSEP
glycan array binding signal (z-score) [1]: -0.39
glycan array binding signal (z-score) [2]: -0.359
glycan array binding signal (z-score) [3]: -0.338
glycan array binding signal (z-score) [4]: -0.302
glycan array binding signal (z-score) [5]: -0.108
glycan array binding signal (z-score) [6]: -0.372
glycan array binding signal (z-score) [7]: -0.081
glycan array binding signal (z-score) [8]: -0.25
glycan array binding signal (z-score) [9]: -0.278
glycan array binding signal (z-score) [10]: -0.34
glycan array binding signal (z-score) [11]: -0.233
glycan array binding signal (z-score) [12]: -0.322
glycan array binding signal (z-score) [13]: -0.376
glycan array binding signal (z-score) [14]: -0.353
glycan array binding signal (z-score) [15]: -0.32
glycan array binding signal (z-score) [16]: -0.333
glycan array binding signal (z-score) [17]: -0.339
glycan array binding signal (z-score) [18]: -0.254
glycan array binding signal (z-score) [19]: 0.215
glycan array binding signal (z-score) [20]: -0.336
glycan array binding signal (z-score) [21]: -0.278
glycan array binding signal (z-score) [22]: -0.35
glycan array binding signal (z-score) [23]: -0.371
glycan array binding signal (z-score) [24]: -0.156
glycan array binding signal (z-score) [25]: -0.177
glycan array binding signal (z-score) [26]: -0.274
glycan array binding signal (z-score) [27]: -0.218
glycan array binding signal (z-score) [28]: -0.359
glycan array binding signal (z-score) [29]: 0.012
glycan array binding signal (z-score) [30]: -0.348
glycan array binding signal (z-score) [31]: 0.439
glycan array binding signal (z-score) [32]: -0.349
glycan array binding signal (z-score) [33]: -0.017
glycan array binding signal (z-score) [34]: -0.203
glycan array binding signal (z-score) [35]: -0.005
glycan array binding signal (z-score) [36]: 0.2
glycan array binding signal (z-score) [37]: -0.115
glycan array binding signal (z-score) [38]: 0.252
glycan array binding signal (z-score) [39]: -0.375
glycan array binding signal (z-score) [40]: -0.197
glycan array binding signal (z-score) [41]: -0.359
glycan array binding signal (z-score) [42]: -0.385
glycan array binding signal (z-score) [43]: -0.343
glycan array binding signal (z-score) [44]: -0.249
glycan array binding signal (z-score) [45]: -0.387
